The record followed here is US4056673A, “Phosphonoacetic acid derivatives of nucleosides” (Hoffmann-La Roche Inc., priority 1976, dated 1977).

In this assay the test system is herpes simplex type 1 virus. In words: In vitro antiviral activity by tube dilution assay in WI-38 human lung fibroblast cells. The following applies: for EC99: Human alphaherpesvirus 1, WI-38, 168 h, read-out: dose which inhibited the growth of herpes simplex type 1 virus by at least 2 logarithms (99% reduction in virus titer). As to the method: Purine and pyrimidine derivatives of phosphonoacetic acid, disodium salt, were tested for in vitro antiviral activity against herpes simplex type 1 virus by the tube dilution assay. Monolayers of WI-38 human lung fibroblast cells were infected with serial ten-fold dilutions of herpes simplex type 1 virus. The mean tissue culture infective doses (TCID50) of the virus-infected cultures in the presence and absence of non-cytotoxic doses of the test substances were determined on the basis of cytopathogenic effect after 7 days incubation at 37° C. The doses of test substances which inhibited the growth of herpes simplex type 1 virus by at least 2 logarithms (equivalent to 99% reduction in virus titer) are as follows: […]

For the molecule `O=C(O)CP(=O)(O)OC[C@H]1O[C@@H](n2ccc(=O)[nH]c2=O)[C@H](O)[C@@H]1O` [Uridine-5'-mono-carboxymethylphosphonate], the EC99 worked out at 125 µg/mL.

For the molecule “Adenosine-2'-(or 3'),5'-bis-carboxymethylphosphonate”, the “dose which inhibited the growth of herpes simplex type 1 virus by at least 2 logarithms (99% reduction in virus titer)” value (WI-38 cells, 7 days at 37° C) was above 1000 μg/ml. `Nc1ncnc2c1ncn2[C@@H]1O[C@H](COP(=O)(O)CC(=O)O)[C@@H](O)[C@H]1O` [Adenosine-5'-mono-carboxymethylphosphonate]: the EC99 amounted to 250 µg/mL. On to `Cc1cn([C@H]2C[C@H](O)[C@@H](COP(=O)(O)CC(=O)O)O2)c(=O)[nH]c1=O` [Thymidine-5'-mono-carboxymethylphosphonate], for which the EC99 worked out at 500 µg/mL.

For the molecule `Nc1nc2c(ncn2[C@@H]2O[C@H](COP(=O)(O)CC(=O)O)[C@@H](O)[C@H]2O)c(=O)[nH]1` [Guanosine-5'-mono-carboxymethylphosphonate], the EC99 was below 500 µg/mL.
